Data from publication PMC12130793, “A conserved aspartate residue in [4Fe-4S]-containing HypD is required for [NiFe]-cofactor biosynthesis and for efficient interaction of the HypCD scaffold complex with HypE” (Metallomics: Integrated Biometal Science, 2025).
These are yes or no findings as the source states them, for the method shown. In cells and extracts the contact can be indirect. Some results given as binding are weak or reduced against the parent protein; the word gives no strength. For some assays here: Sequences can lack the tags named with a protein.

Assays:
Assay in all cases: pull-down; co-purification from BL21(DE3) cells by the StrepII tag (on HypD, HypC or HybG) under anoxic conditions; 5 ug of isolated protein on SDS-PAGE, immunoblot with anti-HypD or anti-HypE antiserum (1:1000)
[1] = target: T1, HypD_(D98A)-HybG-Strep complex (E. coli) (UniProt P0AAM7+P24192)
T1 sequence 1: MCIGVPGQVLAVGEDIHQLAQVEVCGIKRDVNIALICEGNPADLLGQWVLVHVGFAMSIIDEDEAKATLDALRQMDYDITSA
T1 sequence 2: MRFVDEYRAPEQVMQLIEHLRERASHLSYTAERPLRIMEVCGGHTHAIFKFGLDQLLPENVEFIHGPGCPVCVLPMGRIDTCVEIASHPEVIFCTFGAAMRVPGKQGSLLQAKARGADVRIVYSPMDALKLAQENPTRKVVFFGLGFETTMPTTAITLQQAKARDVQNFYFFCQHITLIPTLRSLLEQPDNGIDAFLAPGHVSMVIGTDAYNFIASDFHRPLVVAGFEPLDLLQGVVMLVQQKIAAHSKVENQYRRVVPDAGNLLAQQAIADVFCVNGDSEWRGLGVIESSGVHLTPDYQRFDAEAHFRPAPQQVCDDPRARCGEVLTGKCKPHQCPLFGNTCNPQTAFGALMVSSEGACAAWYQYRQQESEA

[2] = target: T2, native HypD-HybG-Strep complex (E. coli) (UniProt P0AAM7+P24192)
T2 sequence 1: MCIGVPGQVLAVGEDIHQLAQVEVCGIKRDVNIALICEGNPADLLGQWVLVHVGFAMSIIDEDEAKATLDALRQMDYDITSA
T2 sequence 2: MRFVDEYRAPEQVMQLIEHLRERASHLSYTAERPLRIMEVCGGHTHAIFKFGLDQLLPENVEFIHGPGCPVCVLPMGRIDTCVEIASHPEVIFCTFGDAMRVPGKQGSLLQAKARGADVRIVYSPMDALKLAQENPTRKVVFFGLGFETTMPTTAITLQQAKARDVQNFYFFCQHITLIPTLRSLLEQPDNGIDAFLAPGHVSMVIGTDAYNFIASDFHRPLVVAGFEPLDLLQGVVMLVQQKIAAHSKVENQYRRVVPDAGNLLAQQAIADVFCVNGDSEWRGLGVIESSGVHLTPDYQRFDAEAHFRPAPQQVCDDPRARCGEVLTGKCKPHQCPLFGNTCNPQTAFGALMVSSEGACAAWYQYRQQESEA

[3] = target: T3, HybG with a C-terminal StrepII-tag (E. coli) (UniProt P0AAM7)
T3 sequence: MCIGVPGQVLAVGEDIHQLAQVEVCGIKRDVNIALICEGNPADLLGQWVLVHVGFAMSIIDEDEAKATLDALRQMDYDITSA

[4] = target: T4, native HypD-HypC-Strep complex (E. coli) (UniProt P0AAM3+P24192)
T4 sequence 1: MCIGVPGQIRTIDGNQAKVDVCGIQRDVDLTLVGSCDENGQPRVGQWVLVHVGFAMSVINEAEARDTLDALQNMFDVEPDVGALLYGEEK
T4 sequence 2: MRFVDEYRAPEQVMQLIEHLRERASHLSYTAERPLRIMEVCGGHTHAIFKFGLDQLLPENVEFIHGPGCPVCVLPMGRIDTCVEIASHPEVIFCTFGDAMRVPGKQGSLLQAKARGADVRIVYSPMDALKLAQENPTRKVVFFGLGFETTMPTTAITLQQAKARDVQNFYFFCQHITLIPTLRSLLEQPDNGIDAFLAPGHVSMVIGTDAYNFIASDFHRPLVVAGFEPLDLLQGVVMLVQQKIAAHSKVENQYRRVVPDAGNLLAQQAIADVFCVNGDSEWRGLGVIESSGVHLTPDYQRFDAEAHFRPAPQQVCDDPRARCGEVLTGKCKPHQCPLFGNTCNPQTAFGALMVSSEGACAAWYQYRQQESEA

[5] = target: T5, Strep-tagged HypD_(D98A) (E. coli) (UniProt P24192)
T5 sequence: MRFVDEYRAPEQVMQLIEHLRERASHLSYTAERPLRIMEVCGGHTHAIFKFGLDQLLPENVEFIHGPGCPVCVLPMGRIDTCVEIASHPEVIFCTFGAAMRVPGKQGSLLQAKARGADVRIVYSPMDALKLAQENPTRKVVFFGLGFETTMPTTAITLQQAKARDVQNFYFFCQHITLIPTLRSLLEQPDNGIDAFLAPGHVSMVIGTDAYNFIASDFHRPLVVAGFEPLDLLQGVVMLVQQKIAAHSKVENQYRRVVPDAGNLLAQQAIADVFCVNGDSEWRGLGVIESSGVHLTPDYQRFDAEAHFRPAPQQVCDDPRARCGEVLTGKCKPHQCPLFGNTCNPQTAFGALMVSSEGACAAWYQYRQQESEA

[6] = target: T6, HypD_(D98A)-HypC-Strep complex (E. coli) (UniProt P0AAM3+P24192)
T6 sequence 1: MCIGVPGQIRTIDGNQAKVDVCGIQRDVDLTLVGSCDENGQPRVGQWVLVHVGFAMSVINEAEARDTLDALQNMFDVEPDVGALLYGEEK
T6 sequence 2: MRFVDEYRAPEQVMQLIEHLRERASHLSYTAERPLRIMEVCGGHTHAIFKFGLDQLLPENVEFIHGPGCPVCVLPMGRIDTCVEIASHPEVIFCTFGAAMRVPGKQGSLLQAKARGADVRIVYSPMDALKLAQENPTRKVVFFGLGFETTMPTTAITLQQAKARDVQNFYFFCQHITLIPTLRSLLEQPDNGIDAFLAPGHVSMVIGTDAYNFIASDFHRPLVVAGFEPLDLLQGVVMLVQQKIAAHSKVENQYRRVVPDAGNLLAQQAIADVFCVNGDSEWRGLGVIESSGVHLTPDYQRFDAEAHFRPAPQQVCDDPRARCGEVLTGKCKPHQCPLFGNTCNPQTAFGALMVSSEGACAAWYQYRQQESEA

[7] = target: T7, N-terminally Strep-tagged HypD (E. coli) (UniProt P24192)
T7 sequence: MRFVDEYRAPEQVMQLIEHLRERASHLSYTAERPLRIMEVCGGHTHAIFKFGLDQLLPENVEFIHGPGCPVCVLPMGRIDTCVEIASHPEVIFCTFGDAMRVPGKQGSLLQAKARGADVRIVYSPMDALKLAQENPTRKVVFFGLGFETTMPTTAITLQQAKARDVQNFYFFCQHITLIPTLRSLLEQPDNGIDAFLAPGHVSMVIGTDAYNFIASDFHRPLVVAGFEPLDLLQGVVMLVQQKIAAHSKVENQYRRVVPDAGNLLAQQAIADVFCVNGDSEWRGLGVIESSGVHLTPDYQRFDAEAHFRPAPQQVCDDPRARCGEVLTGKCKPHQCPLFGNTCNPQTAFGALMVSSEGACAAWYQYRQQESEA

B1: HypE (co-expressed from phypDEF-hybG) (protein, UniProt P24193 1-336)
chain: MNNIQLAHGSGGQAMQQLINSLFMEAFANPWLAEQEDQARLDLAQLVAEGDRLAFSTDSYVIDPLFFPGGNIGKLAICGTANDVAVSGAIPRYLSCGFILEEGLPMETLKAVVTSMAETARAAGIAIVTGDTKVVQRGAVDKLFINTAGMGAIPANIHWGAQTLTAGDVLLVSGTLGDHGATILNLREQLGLDGELVSDCAVLTPLIQTLRDIPGVKALRDATRGGVNAVVHEFAAACGCGIELSEAALPVKPAVRGVCELLGLDALNFANEGKLVIAVERNAAEQVLAALHSHPLGKDAALIGEVVERKGVRLAGLYGVKRTLDLPHAEPLPRIC
binding [1]: binds weakly
binding [2]: binds

B2: HypD (native, untagged) (natural protein, E. coli, UniProt P24192 1-373, looked up)
chain: MRFVDEYRAPEQVMQLIEHLRERASHLSYTAERPLRIMEVCGGHTHAIFKFGLDQLLPENVEFIHGPGCPVCVLPMGRIDTCVEIASHPEVIFCTFGDAMRVPGKQGSLLQAKARGADVRIVYSPMDALKLAQENPTRKVVFFGLGFETTMPTTAITLQQAKARDVQNFYFFCQHITLIPTLRSLLEQPDNGIDAFLAPGHVSMVIGTDAYNFIASDFHRPLVVAGFEPLDLLQGVVMLVQQKIAAHSKVENQYRRVVPDAGNLLAQQAIADVFCVNGDSEWRGLGVIESSGVHLTPDYQRFDAEAHFRPAPQQVCDDPRARCGEVLTGKCKPHQCPLFGNTCNPQTAFGALMVSSEGACAAWYQYRQQESEA
notes: Carries a [4Fe-4S] cluster; also called native HypD; WT HypD; source: E. coli BL21(DE3), co-expressed with HypC-Strep (phypDC) or with HypE, HypF and HybG-Strep (phypDEF-hybG); co-purified anaerobically
binding [3]: binds

B3: HypD_(D98A) (untagged) (natural protein, E. coli, UniProt P24192 1-373, looked up)
chain: MRFVDEYRAPEQVMQLIEHLRERASHLSYTAERPLRIMEVCGGHTHAIFKFGLDQLLPENVEFIHGPGCPVCVLPMGRIDTCVEIASHPEVIFCTFGAAMRVPGKQGSLLQAKARGADVRIVYSPMDALKLAQENPTRKVVFFGLGFETTMPTTAITLQQAKARDVQNFYFFCQHITLIPTLRSLLEQPDNGIDAFLAPGHVSMVIGTDAYNFIASDFHRPLVVAGFEPLDLLQGVVMLVQQKIAAHSKVENQYRRVVPDAGNLLAQQAIADVFCVNGDSEWRGLGVIESSGVHLTPDYQRFDAEAHFRPAPQQVCDDPRARCGEVLTGKCKPHQCPLFGNTCNPQTAFGALMVSSEGACAAWYQYRQQESEA
notes: HypD of E. coli with the D98A exchange, without a tag; source: co-purified anaerobically
binding [3]: binds

B4: HypE (in cells carrying phypD or phypDC) (protein, UniProt P24193 1-336)
chain: MNNIQLAHGSGGQAMQQLINSLFMEAFANPWLAEQEDQARLDLAQLVAEGDRLAFSTDSYVIDPLFFPGGNIGKLAICGTANDVAVSGAIPRYLSCGFILEEGLPMETLKAVVTSMAETARAAGIAIVTGDTKVVQRGAVDKLFINTAGMGAIPANIHWGAQTLTAGDVLLVSGTLGDHGATILNLREQLGLDGELVSDCAVLTPLIQTLRDIPGVKALRDATRGGVNAVVHEFAAACGCGIELSEAALPVKPAVRGVCELLGLDALNFANEGKLVIAVERNAAEQVLAALHSHPLGKDAALIGEVVERKGVRLAGLYGVKRTLDLPHAEPLPRIC
binding [4]: binds
binding [5]: no binding
binding [6]: binds weakly
binding [7]: no binding
